“And” between values parts separate entries of the source, which are not always exact repeats. Equal values may be shown once. Hit rate of the full screen: of about 270,000 compounds, about 620 (0.23%) were called active. Inconclusive results, whose numbers are uncertain, are shown with a selection of clear calls. Calls follow the shape of the dose curve; as a rule, active = well fitted inhibition curve with a large enough effect in the polarisation, with a control signal flat (not every such curve was filed as active); inconclusive = small, poorly fitted or top-dose-only effect, or effect the other way, or a change in a side signal; inactive = no such curve, though single readings can be large or run the other way; the % refers to the polarisation. Where the call is inconclusive, the potency comes from a doubtful curve fit. “Side channel” marks fits to a control or component signal instead of the main read-out.
Each compound was assayed against Menin (Homo sapiens) (UniProt O00255) (assay: qHTS Assay for Inhibitors Targeting the Menin-MLL Interaction in MLL Related Leukemias: Competition With Texas Red Labeled MLL-derived Mutant Peptide). Settings: fluorescence polarization; series mostly up to 61.6 µM; FP activity change, negative = inhibition: at the top concentration.
For FP activity change, negative = inhibition in this document: % of control where 0% means no effect.
Potency is read from the fitted curve at half-maximal effect; tags tell the direction and shape of the fitted curve or compound fluorescence and quenching.

Sequence of UniProt O00255 (O00255 whole entry, looked up): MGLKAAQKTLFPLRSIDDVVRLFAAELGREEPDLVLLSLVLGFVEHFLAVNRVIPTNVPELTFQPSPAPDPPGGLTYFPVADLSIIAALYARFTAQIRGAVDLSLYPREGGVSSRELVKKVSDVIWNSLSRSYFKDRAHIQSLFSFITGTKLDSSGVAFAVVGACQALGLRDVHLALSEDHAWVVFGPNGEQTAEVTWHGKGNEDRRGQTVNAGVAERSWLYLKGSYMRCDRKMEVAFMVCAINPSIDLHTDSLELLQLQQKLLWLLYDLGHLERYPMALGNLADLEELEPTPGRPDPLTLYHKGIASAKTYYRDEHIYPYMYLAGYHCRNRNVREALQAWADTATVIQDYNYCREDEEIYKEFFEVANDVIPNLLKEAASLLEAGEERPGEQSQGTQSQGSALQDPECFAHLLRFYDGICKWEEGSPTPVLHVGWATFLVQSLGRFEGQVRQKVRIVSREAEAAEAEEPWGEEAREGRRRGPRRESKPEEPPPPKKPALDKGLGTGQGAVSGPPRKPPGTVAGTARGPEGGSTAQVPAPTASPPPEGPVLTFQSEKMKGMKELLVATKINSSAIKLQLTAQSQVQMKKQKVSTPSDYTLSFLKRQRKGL

Structure (SMILES)	Potency	FP activity change, negative = inhibition
O=C(Nc1cccc(Cl)c1)c1c(O)c2c(n(Cc3ccccc3)c1=O)CCCC2	inconclusive: 4.47 µM [inhibitor, single point]	
CCc1ccc(CNCCc2ccc(F)cc2)cc1		inactive: -23.5%
C#CCOCOCC#CCN(CC)CC	inconclusive: 0.224 µM [inhibitor, full curve]	
CN(C(=O)CN1CC=C(c2ccccc2)CC1)c1c(N)n(Cc2ccccc2)c(=O)[nH]c1=O	inconclusive: 35.5 µM [inhibitor, partial curve, poor fit]	
Nc1ccc(N=Nc2ccccc2)cc1	inconclusive: 39.8 µM [quencher, side channel, single point]	
CNCC[C@@H](Oc1ccc(C(F)(F)F)cc1)c1ccccc1	inconclusive: 12.6 µM [fluorescent, side channel, partial curve]	
CC(C)CC1C(=O)N2CCCC2C2(O)O[C@@](NC(=O)C3C=C4c5cccc6[nH]c(Br)c(c56)CC4N(C)C3)(C(C)C)C(=O)N12 (stereo partly drawn)	inconclusive: 31.6 µM [quencher, side channel, single point]	
O=C1NC(=O)N(CCNc2ncc(C(F)(F)F)cc2Cl)C(=O)C1Cc1ccc(Cl)cc1 (stereo not drawn)	inconclusive: 28.2 µM [quencher, single point]	
O=C(O)c1ccc(-c2ccc3cc(C45CC6CC(CC(C6)C4)C5)c(O)cc3c2)cc1	inconclusive: 4.47 µM [quencher, side channel, full curve]	
CCCCN1C(=O)/C(=C\c2ccco2)C(=O)N(CCc2ccccc2)C1=O		inactive: 73.4%
Cc1ccsc1/C=N/NC(=O)c1cccc(S(=O)(=O)Nc2ccccc2Cl)c1	inconclusive: 28.2 µM [quencher, side channel, partial curve]	
CCCCCCn1c(O)c(C=NC2CCN(Cc3ccccc3)CC2)c(=O)[nH]c1=O	inconclusive: 8.91 µM [fluorescent, side channel, full curve, poor fit]	
CCCCN1C(=O)C(C2c3ccccc3C(=O)N2Cc2ccccc2)C(=O)NC1=S (stereo not drawn)	inconclusive: 15.8 µM [quencher, side channel, partial curve]	
CCCCN1C(=N)C(CC)(CC)C(=O)NC1=O		inactive: -10.9%
CCN(CC)S(=O)(=O)c1ccc(NN=C(C#N)C#N)cc1	inconclusive: 2.51 µM [quencher, side channel, full curve]	
CCn1ccnc1CN1CCCC(C(=O)c2ccc(SC)cc2)C1 (stereo not drawn)	inconclusive: 0.794 µM [inhibitor, full curve, poor fit]	
O=C1NC(=O)N(Cc2ccco2)C(=O)/C1=C/c1ccc(-c2cccc([N+](=O)[O-])c2)o1	inconclusive: 25.1 µM [quencher, single point]	
C[C@H]1[C@H](OC(=O)CCC(=O)NCc2ccc(C(=O)O)cc2)O[C@@H]2O[C@@]3(C)CC[C@H]4[C@H](C)CC[C@@H]1C24OO3	inconclusive: 22.4 µM [fluorescent, side channel, partial curve]	
CCOP(=O)(OCC)C(O)c1cccc([N+](=O)[O-])c1 (stereo not drawn)		inactive: 3.03%
O=Cc1cn(Cc2cccc([N+](=O)[O-])c2)c2ccccc12	inconclusive: 20 µM [quencher, side channel, partial curve]	

Structure (SMILES)	Potency	FP activity change, negative = inhibition
COc1ccc(-[n+]2c(-c3ccccc3)cc(-c3ccc(C)cc3)cc2-c2ccccc2)cc1	inconclusive: 44.7 µM [inhibitor, partial curve]	
CC(C)OCCCNC(=O)c1c(N)n(CC2CCCO2)c2nc3ccccc3nc12 (stereo not drawn)		inactive: -5.65%
CCC(C)NC(=O)c1c(N)n(Cc2ccc3c(c2)OCO3)c2nc3ccccc3nc12 (stereo not drawn)	inconclusive: 8.91 µM [quencher, side channel, partial curve]	
CN[C@@H]1C[C@@H](c2ccc(Cl)c(Cl)c2)c2ccccc21	inconclusive: 31.6 µM [fluorescent, side channel, single point] and inconclusive: 11.2 µM [fluorescent, side channel, partial curve]	
O=C(N/N=C/c1c(O)n(C2CC2)c(=S)[nH]c1=O)c1ccccc1O	inconclusive: 20 µM [quencher, partial curve]	
O=[N+]([O-])c1ccc(Sc2nc3ccccc3o2)c([N+](=O)[O-])c1	inconclusive: 25.1 µM [quencher, side channel, partial curve]	
O=NN(CCCl)C(=O)NCCCl	inconclusive: 39.8 µM [fluorescent, partial curve]	
C[C@H](N)Cc1cnc[nH]1		inactive: -1.49% [at 24.8 µM]
Nc1c(C(=O)OC2CCCCC2)c2nc3ccccc3nc2n1CC1CCCO1 (stereo not drawn)		inactive: -8.44%
CCCCOP(=O)(c1ccc(N(C)C)cc1)C(O)c1c(Cl)cccc1Cl (stereo not drawn)	inconclusive: 7.94 µM [fluorescent, side channel, full curve, poor fit]	
CCCCCn1c(N)c(C(=O)NCc2cccs2)c2nc3ccccc3nc21		inactive: 35%
CCOC(=O)N1CC(C)N(/[N+]([O-])=N/Oc2ccc([N+](=O)[O-])cc2[N+](=O)[O-])CC1C (stereo not drawn)	inconclusive: 7.08 µM [quencher, side channel, full curve]	
CN(C)C1C(=O)C(C(N)=O)=C(O)[C@@]2(O)C(=O)C3=C(O)c4c(O)cccc4[C@@](C)(O)C3[C@H](O)C12 (stereo partly drawn)	inconclusive: 3.55 µM [quencher, side channel, full curve, poor fit]	
CCOc1ccccc1N1C(=O)NC(=O)/C(=C/c2ccc3c4c(cccc24)CC3)C1=O	inconclusive: 39.8 µM [quencher, side channel, single point]	
C#CC1(O)CCC2C3CCC4=CC(=O)CCC4(C)C3CCC21C (stereo not drawn)	inconclusive: 3.98 µM [inhibitor, single point]	
c1ccc(CCCCN2CCC(c3ccccc3)CC2)cc1	inconclusive: 14.1 µM [inhibitor, partial curve]	
CC(Cc1ccccc1)NCC(=O)Nc1cc(N(C)C)nc2ccccc12 (stereo not drawn)	inconclusive: 20 µM [fluorescent, side channel, partial curve]	
COc1cccc(O)c1CN1CCCC(C(=O)c2ccccc2SC)C1 (stereo not drawn)	inconclusive: 7.08 µM [inhibitor, partial curve]	
Cc1ccc(CN2CCN(Cc3ccccc3F)CC2)cc1	inconclusive: 39.8 µM [inhibitor, single point]	
c1cc2n(c1)-c1c(ccc3c1OCO3)CNC2c1ccc2c(c1)OCO2 (stereo not drawn)	inconclusive: 14.1 µM [inhibitor, single point]	

Structure (SMILES)	Potency	FP activity change, negative = inhibition
CN(C)[C@@H]1C(=O)C(C(N)=O)=C(O)[C@]2(O)C(=O)C3=C(O)c4c(O)ccc(Cl)c4[C@](C)(O)[C@H]3C[C@@H]12		inactive: -7.26% [at 24.8 µM]
NC(=O)Nc1ccc(C(=O)OCC(=O)Nc2ccc(Cl)cc2C(=O)c2ccccc2)cc1	inconclusive: 14.1 µM [quencher, side channel, partial curve]	
O=C1CC2OCC=C3CN4CCC56c7ccccc7N1C5C2C3CC46 (stereo not drawn)	inconclusive: 5.01 µM [inhibitor, full curve]	
COc1ccc(CN(C)S(=O)(=O)c2nnc(NC(=O)c3ccccc3Br)s2)cc1	inconclusive: 25.1 µM [quencher, side channel, single point]	
COc1ccc(C2C(C#N)=C(N)Oc3c2c(=O)oc2ccccc32)cc1Cn1cc([N+](=O)[O-])cn1 (stereo not drawn)	inconclusive: 11.2 µM [quencher, side channel, partial curve]	
C[C@@H](C1CC[C@@]2(O)C3=CC(=O)[C@@H]4C[C@@H](O)[C@@H](O)C[C@]4(C)[C@H]3CC[C@]12C)[C@H](O)CCC(C)(C)O (stereo partly drawn)	inconclusive: 12.6 µM [inhibitor, partial curve]	
C=CCN1C[C@@H](C)N([C@H](c2ccc(C(=O)N(CC)CC)cc2)c2cccc(OC)c2)C[C@@H]1C	inconclusive: 2 µM [fluorescent, side channel, full curve, poor fit]	
O=C(N/N=C/c1c(O)n(CCC2=CCCCC2)c(=O)[nH]c1=O)c1ccccc1	inconclusive: 39.8 µM [quencher, side channel, single point]	
Cc1ccc2nc3sc(=O)sc3nc2c1		inactive: 19.6%
Cc1cc(O)c2c(c1)OC(C)(C)C1=C2CC(C)CC1 (stereo not drawn)	inconclusive: 22.4 µM [quencher, side channel, single point]	
COc1cc(CN2CCSCC2)cc(OC)c1OC	inconclusive: 8.91 µM [inhibitor, partial curve, poor fit]	
O=C(CCN1CCN(CCO)CC1)N1c2ccccc2Sc2ccc(C(F)(F)F)cc21	inactive and inconclusive: 39.8 µM [inhibitor, single point]	
CCOC(=O)C1=CC(OC(CC)CC)C(NC(C)=O)C(N)C1 (stereo not drawn)	inconclusive: 0.631 µM [inhibitor, full curve, poor fit]	
Nc1ccc2nonc2c1[N+](=O)[O-]		inactive: -0.0483%
CCOP(=S)(OCC)O/N=C(\C#N)c1ccccc1Cl		inactive: 1.83%
CCCCC[C@@H](/C=C/C=C\CCCCCCCC(=O)O)OO	inconclusive: 6.31 µM [quencher, side channel, single point]	
Cc1ccccc1OCCCn1cc(C(=O)C(=O)N2CCOCC2)c2ccccc21	inconclusive: 5.62 µM [fluorescent, side channel, partial curve]	
CC(=O)N[C@@H]1CCSC1=O		inactive: 8.14% [at 24.8 µM]
